{
  "source": "PubChem BioAssay AID2451",
  "about": "(National Center for Advancing Translational Sciences (NCATS), 2010)",
  "note": "Where “and” joins values, the source holds several entries; their conditions need not be identical. Equal entries are not always repeated. Out of some 290,000 compounds screened, about 2,100 (0.72%) were called active. The inconclusive results got no clear call from the source; some entries with a clear call stand among them for comparison. Calls follow the shape of the dose curve; as a rule, active = well fitted inhibition curve with a large enough effect; inconclusive = small, poorly fitted or top-dose-only effect, or effect the other way; inactive = flat fitted curve, though single readings scatter. A potency beside an inconclusive call is a rough fit, not a confirmed value.",
  "data": [
    {"target": "Fructose-bisphosphate aldolase (Giardia intestinalis (strain ATCC 50803 / WB clone C6)) (UniProt A8B2U2)", "sequence (A8B2U2 whole entry, looked up)": "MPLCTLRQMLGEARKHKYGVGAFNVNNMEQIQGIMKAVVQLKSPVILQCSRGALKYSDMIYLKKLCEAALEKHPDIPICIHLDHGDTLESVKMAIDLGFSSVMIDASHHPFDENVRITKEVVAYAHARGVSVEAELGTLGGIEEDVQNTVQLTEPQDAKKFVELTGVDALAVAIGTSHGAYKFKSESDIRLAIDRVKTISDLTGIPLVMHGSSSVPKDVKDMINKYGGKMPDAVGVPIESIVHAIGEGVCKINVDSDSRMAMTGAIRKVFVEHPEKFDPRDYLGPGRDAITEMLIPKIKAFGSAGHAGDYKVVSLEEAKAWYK", "assay": "qHTS Assay for Inhibitors of Fructose-1,6-bisphosphate Aldolase from Giardia Lamblia; also: nearly all actives have a fitted effect of over 55% in size; also: potency is read from the fitted curve at half-maximal effect; tags tell the direction and shape of the fitted curve", "settings": "purified Giardia FBPA; series mostly up to 59.6 µM", "in_short": "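Giardia FBPA (40 nM reagent) was preincubated 10 min at RT with compound (up to 57.5 uM final), then substrate plus GAPDH/TPI/NAD/arsenate coupling system with diaphorase/resazurin was added; resorufin fluorescence (525/598 nm) was read after 20 min.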", "values": [
      {"compound": "CCN(c1cccc(C)c1)C1C(=O)c2ccccc2N1C(C)=O", "note": "(stereo unspecified)", "Potency": "inconclusive: 14.1 µM [inhibitor, partial curve]"},
      {"compound": "COc1ccc(OC)c(C2=C/C(=C/c3ccccn3)C(=O)O2)c1", "Potency": "inconclusive: 44.6 µM [inhibitor, single point]"},
      {"compound": "COc1ccc(N=Nc2c(-c3ccc(OC)cc3)[nH]oc2=O)cc1", "Potency": "active: 12.6 µM"},
      {"compound": "CC1(C)Cc2c(sc(NC(=O)c3ccccc3Cl)c2C(=O)O)CO1", "Potency": "inconclusive: 15.8 µM [inhibitor, single point]"},
      {"compound": "N/C(=N\\NC(=O)Nc1ccccc1)c1ccccn1", "Potency": "active: 19.9 µM"},
      {"compound": "COc1ccc2nc(NC(=O)C3=NN(c4ccccc4)C(=O)CC3)sc2c1", "Potency": "inactive"},
      {"compound": "CC(C)CNC(=S)N1CCN(C)CC1", "Potency": "inconclusive: 19.9 µM [inhibitor, partial curve]"},
      {"compound": "Cc1cc(Cl)ccc1OCCCC(=O)NO", "Potency": "inconclusive: 15.8 µM [inhibitor, single point]"},
      {"compound": "Cc1ccc(/C=C(\\C#N)C(=O)Nc2cccc3ncccc23)o1", "Potency": "active: 5.61 µM"},
      {"compound": "COc1ccc(Nc2nc(N3CCCC3)c3ccccc3n2)cc1", "Potency": "inactive"},
      {"compound": "C=CCNc1ncnc2c1[nH]c1ccccc12", "Potency": "inactive"},
      {"compound": "OCCN1CCN(Cc2ccc3ccccc3c2)CC1", "Potency": "inconclusive: 17.8 µM [inhibitor, partial curve]"},
      {"compound": "Cc1c(C(=O)O)c(O)cc2c1C(=O)c1c(O)c([C@H]3O[C@H](CO)[C@@H](O)[C@H](O)[C@H]3O)c(O)c(O)c1C2=O", "Potency": "active: 22.3 µM and active: 17.7 µM"},
      {"compound": "CN1CCN(C(=O)c2cn(-c3ccccc3)nc2-c2cccs2)CC1", "Potency": "inactive"},
      {"compound": "COc1cccc(C(=O)CSc2nccn2C)c1", "Potency": "inconclusive: 39.8 µM [inhibitor, single point]"},
      {"compound": "N#Cc1ccc(NCC(=O)Nc2ccc3c(c2)OCCO3)cc1", "Potency": "inactive"},
      {"compound": "CC(=O)NCC(=O)OCC(=O)c1ccc2ccccc2c1", "Potency": "inactive"},
      {"compound": "COc1ccc(C(=O)NC(=S)N2C[C@H]3C[C@H](C2)c2cccc(=O)n2C3)cc1OC", "Potency": "inconclusive: 14.1 µM [inhibitor, partial curve]"},
      {"compound": "Cc1ccc2nc(SCc3nnc(-c4ccccc4)o3)[nH]c2c1", "Potency": "inconclusive: 19.9 µM [inhibitor, partial curve]"},
      {"compound": "CC1Oc2cc3c(-c4c(O)cc(O)c5c(O)c6c(cc45)OC(C)C(C)C6=O)c(O)cc(O)c3c(O)c2C(=O)C1C", "note": "(stereo unspecified)", "Potency": "inconclusive: 6.29 µM [inhibitor, partial curve]"},
      {"compound": "CC(=O)C1=C(c2ccccc2)OC(N)=C(C#N)C1c1ccccc1F", "note": "(stereo unspecified)", "Potency": "inconclusive: 19.9 µM [inhibitor, partial curve]"},
      {"compound": "Oc1cccc(C2c3[nH]c4ccccc4c3CCN2Cc2ccoc2)c1", "note": "(stereo unspecified)", "Potency": "inactive"},
      {"compound": "COc1ccc(C(=O)Nc2ccc(NC(=O)c3ccccc3F)cn2)cc1", "Potency": "inconclusive: 20 µM [inhibitor, single point]"},
      {"compound": "COC(=O)CCn1[nH]c(=O)c2ccccc2c1=O", "Potency": "inactive"},
      {"compound": "OCC(CO)(CO)N=Cc1c(O)ccc2ccccc12", "Potency": "inconclusive: 9.98 µM [inhibitor, partial curve]"},
      {"compound": "O=C(Nc1nc2c(s1)CCc1ccccc1-2)c1ccco1", "Potency": "inconclusive: 15.8 µM [inhibitor, single point]"},
      {"compound": "O=C(O)CCC(=O)N1CCc2cc(S(=O)(=O)N(CCc3ccccc3)Cc3ccccc3)ccc21", "Potency": "inconclusive: 35.4 µM [activator, single point]"},
      {"compound": "COc1cccc(OCCSc2nnc3sc4ccccc4n23)c1", "Potency": "active: 15.8 µM"},
      {"compound": "COc1ccc(CCn2c(NN=C3CCCCC3)nc3c2c(=O)[nH]c(=O)n3C)cc1", "Potency": "active: 4.46 µM"},
      {"compound": "CC(=C/c1ccco1)/C=N/NC(=O)c1nnn(-c2nonc2N)c1CN(C)C", "Potency": "inconclusive: 19.9 µM [inhibitor, partial curve]"},
      {"compound": "O=C(Cn1nnc(-c2ccccc2Cl)n1)N1CCN(S(=O)(=O)c2ccc(Cl)cc2)CC1", "Potency": "inactive"},
      {"compound": "CN1CCN(S(=O)(=O)c2ccc(NC(=S)NC(=O)c3ccccc3)cc2)CC1", "Potency": "inconclusive: 14.1 µM [inhibitor, partial curve]"},
      {"compound": "O=C1Nc2ccc(Br)cc2C1Cc1ccccc1F", "note": "(stereo unspecified)", "Potency": "inconclusive: 31.6 µM [inhibitor, single point]"},
      {"compound": "c1ccc(-c2noc(CC3CCCCC3)n2)nc1", "Potency": "inactive"},
      {"compound": "COc1cccc(CN2CCN(C(=O)c3ccco3)CC2)c1", "Potency": "inconclusive: 15.8 µM [inhibitor, partial curve]"},
      {"compound": "COC(=O)/C=C1/N/C(=N\\c2nc(C)cc(C)n2)N(c2ccccc2)C1=O", "Potency": "inconclusive: 5.61 µM [inhibitor, partial curve]"},
      {"compound": "O=C(O)c1cc(NC(=O)c2ccccc2F)cc(NC(=O)c2ccccc2F)c1", "Potency": "inactive"},
      {"compound": "COc1ccc(C2c3[nH]c4ccccc4c3C[C@H]3C(=O)N(C)CC(=O)N23)cc1OC", "note": "(stereo partly specified)", "Potency": "inactive"},
      {"compound": "Cc1ccc(S(=O)(=O)CCc2nc3ccccc3[nH]2)cc1", "Potency": "inactive"},
      {"compound": "Cc1ccc(Cn2c(NC(=O)c3ccco3)nc3ccccc32)cc1", "Potency": "inconclusive: 25.1 µM [activator, single point]"},
      {"compound": "O=C(NC1CCCC1)c1ccc2nc(-c3ccco3)c(-c3ccco3)nc2c1", "Potency": "inconclusive: 3.54 µM [inhibitor, full curve]"},
      {"compound": "Cc1nc2c(n1O)CCC/C2=N\\O", "Potency": "inconclusive: 28.2 µM [inhibitor, single point]"},
      {"compound": "Cc1ccc(-n2nc3cc(C)c(N)cc3n2)cc1", "Potency": "inconclusive: 1.58 µM [inhibitor, full curve]"},
      {"compound": "COc1ccc(CN2CCCCCC2)cc1Br", "Potency": "inconclusive: 35.5 µM [inhibitor, partial curve]"},
      {"compound": "CC(=O)Nc1c(NC(=O)CC#N)[nH]c2c(c1=O)c(=O)n(C)c(=O)n2C", "Potency": "inconclusive: 2.81 µM [inhibitor, partial curve]"},
      {"compound": "COc1cccc(-c2cnc(NCc3cc(Cl)ccc3O)n2C)c1", "Potency": "inconclusive: 14.1 µM [inhibitor, partial curve]"},
      {"compound": "O=C(c1ccco1)N1CCN(Cc2cccnc2)CC1", "Potency": "inconclusive: 19.9 µM [inhibitor, partial curve]"},
      {"compound": "COc1cc(CNCc2ccc(OC)cc2OC)cc(OC)c1", "Potency": "inconclusive: 11.2 µM [inhibitor, full curve, poor fit]"},
      {"compound": "Cc1ccc(S(=O)(=O)NNc2ccccc2)c(C)c1", "Potency": "inconclusive: 19.9 µM [inhibitor, single point]"},
      {"compound": "COc1ccc(NC(=S)Nn2cnnc2)cc1OC", "Potency": "inconclusive: 17.7 µM [inhibitor, single point]"},
      {"compound": "CCN1CCN(Cc2cc(Br)ccc2O)CC1", "Potency": "inactive"},
      {"compound": "O=Nc1c2cc(-c3ccccc3)[nH]nc-2c2ccccc12", "Potency": "inactive"},
      {"compound": "COc1cc(NC(=O)c2ccccc2F)ccc1NC(=O)c1ccccc1Cl", "Potency": "inactive"},
      {"compound": "Cc1c(C(=O)N2CCN(C(=O)c3ccco3)CC2)sc2nc(-c3ccc(F)cc3)cn12", "Potency": "inactive"},
      {"compound": "C[C@H]1O[C@H](O[C@H]2[C@H](O)[C@@H](O)[C@@H](O)[C@H](O)[C@@H]2O)[C@@H](N)C[C@@H]1NC(=N)C(=O)O", "Potency": "inconclusive: 19.9 µM [inhibitor, partial curve]"},
      {"compound": "COc1ccc(/C=C/C(=O)N2CCC(C(N)=O)CC2)cc1S(=O)(=O)N1CCOCC1", "Potency": "inactive"},
      {"compound": "NC1=NC(c2ccccc2C(F)(F)F)N(c2ccc(F)c(Cl)c2)C(N)=N1", "note": "(stereo unspecified)", "Potency": "inactive"},
      {"compound": "CN(C)/C=C1/NC(=S)NC1=O", "Potency": "inconclusive: 15.8 µM [inhibitor, partial curve]"},
      {"compound": "CCOC(=O)c1[nH]c2ccc(OC)cc2c1NC(=O)c1cccc(OC)c1", "Potency": "inactive"},
      {"compound": "Cc1cccc(NC(=O)c2cccc(NC(=O)Cc3cccs3)c2)c1", "Potency": "inactive"},
      {"compound": "COc1ccc(OC)c(CN2CCN(C(=O)c3cccs3)CC2)c1", "Potency": "inconclusive: 22.3 µM [inhibitor, partial curve]"},
      {"compound": "COCCn1c(=S)[nH]c2cc(C(=O)N3CC(C)CC(C)C3)ccc2c1=O", "note": "(stereo unspecified)", "Potency": "inconclusive: 14.1 µM [inhibitor, partial curve]"},
      {"compound": "CC(C)Cc1ccc(/C=C/C(=O)NC2CC2)cc1", "Potency": "inactive"},
      {"compound": "COc1ccc(/C=C2\\C(=O)ON=C2c2ccccc2)cc1OC", "Potency": "inactive"},
      {"compound": "COc1cc(C(C[N+](=O)[O-])c2c(-c3ccccc3)cc3ccccn23)cc(OC)c1OC", "note": "(stereo unspecified)", "Potency": "inconclusive: 12.6 µM [inhibitor, partial curve]"},
      {"compound": "O=C(O)c1ccc2c(=O)n3cc(C(=O)c4ccccc4O)cc(Cl)c3nc2c1", "Potency": "inconclusive: 19.9 µM [inhibitor, partial curve]"},
      {"compound": "C=CCNC(=S)/N=c1/ccccn1CC", "Potency": "inconclusive: 11.2 µM [inhibitor, partial curve]"},
      {"compound": "Cc1cccc(C)c1NC(=O)COC(=O)c1ccc([N+](=O)[O-])o1", "Potency": "inactive"},
      {"compound": "Cc1ccc(NS(=O)(=O)c2ccccc2)c2c1CC(C)(C)O2", "Potency": "inconclusive: 19.9 µM [inhibitor, partial curve]"},
      {"compound": "NC(=S)N/N=C/c1ccc2c(c1)OCCO2", "Potency": "inconclusive: 19.9 µM [inhibitor, single point]"},
      {"compound": "CCN1CCC(N(C)C2CCCCC2)CC1", "Potency": "inconclusive: 28.2 µM [inhibitor, single point]"},
      {"compound": "Nc1c(C(=O)NCc2ccco2)sc2nc(N3CCOCC3)c3c(c12)CCCC3", "Potency": "inconclusive: 28.1 µM [inhibitor, partial curve]"},
      {"compound": "CCNc1nc(NC(C)C)nc(N(C#N)C(C)C(=O)N(C)C)n1", "note": "(stereo unspecified)", "Potency": "inactive"},
      {"compound": "O=C(Nc1nnc(-c2ccccc2)o1)NC1CCCCC1", "Potency": "inactive"},
      {"compound": "Cc1ccc(O)c(NC2=C(Cl)C(=O)N(Cc3ccccc3)C2=O)c1", "Potency": "inactive"},
      {"compound": "CCCCCOCC1CC(C/C(C)=N/NC(N)=S)C(=O)O1", "note": "(stereo unspecified)", "Potency": "inconclusive: 17.7 µM [inhibitor, partial curve]"}
    ]}
  ]
}
